# Among all 71,000 compounds or so, about 1,800 (2.5%) were called active. Inconclusive means that the source gave no clear call. Such entries were picked first, then a sample of the others. Calls come from the whole dose curve; as a rule, active = well fitted activation curve with a large enough effect in the signal ratio, with a control signal flat (not every such curve was filed as active); inconclusive = small, poorly fitted or top-dose-only effect, or effect the other way, or a change in a side signal; inactive = flat fitted curve, though single readings scatter; the % refers to the signal ratio. Potencies beside an inconclusive call are fits to weak or partial responses and may not hold up.
# Experiment: Cell signaling CRE-BLA (Fsk stim); for activity change, negative = inhibition: % of control where 0% means no effect
# Conditions: CHO CRE-bla reporter (cAMP response element driving beta-lactamase), forskolin EC10, beta-lactamase ratio; activity change, negative = inhibition: at 38.2 µM (top of the series) unless noted
# Method in brief: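 qHTS titration format; CRE-bla CHO reporter; stimulus EC10 NKH 477, a water-soluble forskolin. Read: CCF4 460/530 nm ratio. Potency expressed as AC50 for activators or inhibitors.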
# Potency is the fitted concentration of half-maximal effect; tags give direction and shape of the fitted curve.
Structure (SMILES),"activity change, negative = inhibition",Potency
O=C1CCCC2=C1C(c1cn(-c3ccccc3)nc1-c1cccs1)c1c([nH]c(=O)[nH]c1=O)N2 (stereo not drawn),inactive,–
COc1ccc(NC(=O)CN2CCN(c3ccccc3F)CC2)cc1,inactive,–
Cc1cc(NC(=O)CSc2nnc3c4c(C)c(C)sc4ncn23)no1,–,"inconclusive: 12.6 µM [rising, single point]"
CCOc1ccc(C(=O)C2CCN(CC(=O)Nc3ccccc3N3CCOCC3)CC2)cc1,inconclusive: -1.59%,–
CCNc1nc(NCC)n2c(SCc3nc4ccccc4c(=O)[nH]3)nnc2n1,–,active: 0.251 µM
CCNc1nc(Oc2ccc(C(=O)OCC)cc2)nc(SC)n1,inconclusive: 23.4%,–
CN(C)Cc1ccccc1-c1cncnc1Nc1ccc(F)cc1,inactive,–
O=C(CSc1nccn1-c1ccccc1)NCc1ccc2c(c1)OCO2,inactive,–
CCc1cc(C(=O)OC)c(NC(=O)CCCC(=O)O)s1,–,"inconclusive: 0.398 µM [falling, partial curve]"
CSc1nnc(-c2ccco2)c(-c2ccco2)n1,inconclusive: 24%,–
COc1cc2c(cc1OC)-c1nncn1C(C)(C)C2,–,active: 12.6 µM
c1csc(-c2csc(-c3cccs3)n2)c1,inactive,–
COc1cccc(Nc2ncc3ncc(=O)n(Cc4ccc(F)cc4)c3n2)c1,inconclusive: -28.4%,–
Cc1cc(C(=O)CSc2nc3ccccc3o2)c(C)n1C1CC1,inactive,–
COc1ccc(C(=O)Nc2nncs2)cc1S(=O)(=O)N1CC(c2ccccc2)CC1=O (stereo not drawn),–,"inconclusive: 3.16 µM [falling, full curve, poor fit]"
CC(C)N(CCc1ccncc1)C(=O)Nc1ccc(Cl)c(Cl)c1,inactive,–
Cn1cc(-c2nc3cnc(Oc4ccccc4)nc3n(C3CC3)c2=O)c2ccccc21,–,"inconclusive: 1.26 µM [rising, full curve]"
COc1ccc([C@@H]2OC[C@]3(COC(C)=O)[C@H](C)C=C(C)[C@@H]2[C@H]3C)cc1,inactive,–
CC(=O)c1cc2c(cc1NC(=O)c1ccc(-n3nc(C)cc3C)cc1)OCO2,–,"inconclusive: 12.6 µM [rising, single point]"
CC(C)(NCc1ccccc1Cl)C(=O)O,inconclusive: -8.05%,–
O=C(CSc1nnc(-c2ccco2)o1)N1c2ccccc2CCc2ccccc21,inactive,–
O=C(CCCn1c(=O)[nH]c2ccsc2c1=O)N1CCN(Cc2ccc3c(c2)OCO3)CC1,inconclusive: 6.18%,–
c1ccc(Cn2nnnc2C(c2cccs2)N2CCCCCC2)cc1 (stereo not drawn),inactive,–
COCC(C)NC(=O)C1CC(=O)N(c2ccc(C)cc2)C1 (stereo not drawn),inactive,–
COc1cccc(C2C(C(=O)OC(C)C)=C(C)Nc3ncnn32)c1 (stereo not drawn),inconclusive: 4.4%,–
O=c1cc(-c2ccccc2)[nH]n1-c1nc2ccccc2[nH]1,–,"inconclusive: 0.501 µM [rising, full curve, poor fit]"

Structure (SMILES),"activity change, negative = inhibition",Potency
CC(=O)SCC(=O)N=c1sc2cc(F)ccc2n1C,inconclusive: -11.7%,–
COC(=O)c1cc(OC)c(OC)cc1NC(=O)c1ccoc1C,inactive,–
O=C(COc1ccccc1)Nc1cccc2nsnc12,–,"inconclusive: 12.6 µM [falling, single point]"
O=C1CNC(=O)c2c(nc3n2CCC3)N1,inactive,–
COc1ccccc1-n1nnnc1S(=O)(=O)Cc1ccc(Cl)cc1,–,"inconclusive: 0.631 µM [falling, full curve, poor fit]"
C#CCn1c(=NC(=O)CSCC(=O)N2CCOCC2)sc2ccccc21,–,"inconclusive: 1.26 µM [rising, full curve]"
Cc1[nH]n2c(=O)c3c(nc2c1-c1ccccc1)CCCC3,inconclusive: 18.3%,–
Nc1nc(CSc2nnnn2-c2ccc(F)c(Cl)c2)nc(N2CCOCC2)n1,–,"inconclusive: 10 µM [rising, partial curve]"
CCCCN(C)C(=O)c1coc(=O)c2ccccc12,inconclusive: 14.2%,–
COc1ccc(-c2nn3c(-c4ccc(F)cc4)nnc3s2)cc1,–,"inconclusive: 6.31 µM [rising, partial curve]"
Cc1n[nH]c(C)c1S(=O)(=O)N(CC(=O)Nc1ccc2c(c1)OCCO2)c1ccc(C(C)C)cc1,inconclusive: -23.5%,–
Cc1nc2cnc(N3CCN(C)CC3)nc2n(Cc2cccs2)c1=O,–,"inconclusive: 12.6 µM [rising, single point]"
Cc1ccc(S(=O)(=O)NCCC(=O)N2CCCCC2)cc1,–,"inconclusive: 3.16 µM [falling, single point]"
O=C(O)c1ccccc1-c1ccc(/C=c2\sc3nc4cc(Br)cnc4n3c2=O)o1,inactive,–
COc1ccc(S(=O)(=O)N(C)CC(=O)O)c2ccccc12,inconclusive: 12.3%,–
C=C(C)CN(CC)c1nc(N)c(C#N)c(CC#N)c1C#N,–,"inconclusive: 10 µM [rising, partial curve]"
COc1ncc2nc(-c3ccc(F)cc3)c(=O)n(Cc3ccc(F)cc3)c2n1,–,"inconclusive: 12.6 µM [rising, partial curve]"
COc1cccc(Nc2ncc3nc(CCc4ccccc4)c(=O)n(C[C@H]4CCCO4)c3n2)c1,–,"inconclusive: 10 µM [rising, single point]"
CCCn1c(=O)c2ccccc2n2c(SCCOc3ccc(C)cc3)nnc12,–,"inconclusive: 3.16 µM [falling, single point]"
N#CC1=C(N)OC2=C(C(=O)CCC2)C1c1ccccc1 (stereo not drawn),inconclusive: -20.9% [at 7.6 µM],–
CC(c1ccccc1)N1CC(C(=O)N2CCN(c3ccccc3)CC2)CC1=O (stereo not drawn),inactive,–
N#Cc1nc(-c2ccco2)oc1N1CCOCC1,inconclusive: 22.1%,–
O=C(c1cc(C(F)(F)F)cc(C(F)(F)F)c1)N1CCC2(CC1)CCN(c1ccncc1)CC2,–,"inconclusive: 12.6 µM [rising, single point]"
CCN(CC)CCN1C(=O)C(=O)/C(=C(/O)c2ccccc2)C1c1ccccc1F (stereo not drawn),inactive,–
Cc1ccc(C)c(NS(=O)(=O)c2c(C)nn(C)c2C)c1,–,"inconclusive: 2 µM [rising, full curve]"
Clc1ccc(OCc2nc(-c3ccccn3)no2)c(Br)c1,–,"inconclusive: 25.1 µM [rising, single point]"

Structure (SMILES),"activity change, negative = inhibition",Potency
CN1CCN(C2=C(Cl)C(=O)N(Cc3ccccc3)C2=O)CC1,inactive,–
Nc1c(C(=O)NCc2ccco2)sc2nc3c(cc12)C(=O)CCC3,–,"inconclusive: 12.6 µM [rising, single point]"
COc1ccc(S(=O)(=O)N2CCN(c3cccc(C)c3C)CC2)cc1,inconclusive: 26.3% [cytotoxic],–
COc1ccc(-c2noc(-c3ccc(Br)o3)n2)cc1OC,inactive,–
CCOc1ccc(-c2nc(-c3ccccc3)no2)cc1OCC,–,"inconclusive: 10 µM [rising, single point]"
CN(C)C(=O)CSc1nnc(-c2cc(-c3cccs3)nc3ccccc23)o1,–,"inconclusive: 3.16 µM [rising, full curve]"
COc1ccc(-n2c(=O)c(-c3cccs3)nc3cnc(N4CCN(C)CC4)nc32)cc1,–,"inconclusive: 2.51 µM [rising, full curve]"
CCc1ccccc1NC(=O)CSc1nc2c(c(-c3ccco3)c1C#N)CCCC2,–,"inconclusive: 0.794 µM [rising, full curve, poor fit]"
Cn1c(=O)c(-c2ccc(F)cc2)nc2cnc(N3CCOCC3)nc21,–,active: 2.51 µM
CCn1nnnc1SCC(=O)Nc1cccc(NC(C)=O)c1,inconclusive: 0.15%,–
Cc1ccc(Cn2c(N3CCCCCC3)nc3c2c(=O)[nH]c(=O)n3C)cc1,inconclusive: 21.5%,–
CCOC(=O)CSc1nnc(CSc2nc3sc4c(c3c(=O)[nH]2)CCC4)n1C,inconclusive: 22.3%,–
CCNC(=O)[C@H]1O[C@H](n2cnc3c(N)nc(NCCc4ccc(CCC(=O)O)cc4)nc32)[C@@H](O)[C@@H]1O,inactive,–
COc1ccc(Nc2ccc3c(c2)=NC2(CCCCC2)[N+]=3[O-])cc1,inactive,–
COc1ccc(/C=N/n2c(N)nc3ccccc32)cc1OC,–,"inconclusive: 6.31 µM [rising, partial curve]"
O=C1c2ccccc2-c2c1nc1c([n+]2[O-])CCCC1,–,active: 2.51 µM
CN(CCC#N)C(=O)CSc1ncnc2sc(-c3ccccc3)cc12,–,"inconclusive: 3.16 µM [falling, single point]"
CCCN1Cc2cccc(C(=O)Nc3ccc(OC)c(OC)c3)c2C1=O,inactive,–
COc1cccc(-c2cc(C(F)(F)F)nc(-n3cncn3)n2)c1,–,"inconclusive: 7.94 µM [rising, partial curve]"
CC(=O)OC[C@@H]1O[C@@H](Oc2cc(OC(C)=O)c3c(=O)cc(-c4ccc(OC(C)=O)c(OC(C)=O)c4)oc3c2)[C@H](OC(C)=O)[C@H](OC(C)=O)[C@@H]1OC(C)=O,inactive,–
Cc1cccc(-n2c(SCC(=O)NCc3ccco3)nnc2-c2ccco2)c1,–,"inconclusive: 12.6 µM [rising, single point]"
CN1CCN(C(=O)c2cc3nc(-c4ccc(Cl)cc4)cc(C(F)(F)F)n3n2)CC1,–,"inconclusive: 3.98 µM [rising, partial curve]"
CCOC(=O)N1CCC(NC(=O)c2cc3c(C)nc4ccccc4c3o2)CC1,–,"inconclusive: 7.94 µM [rising, partial curve]"
Cc1ccc(Cl)cc1NS(=O)(=O)c1c(C)[nH]c(=O)[nH]c1=O,–,"inconclusive: 0.0794 µM [falling, full curve, poor fit]"
COc1ccc(-c2nc3n(c(=O)c2C#N)CCCS3)cc1,inconclusive: 19.4%,–
Cc1cccc(CNc2nc(-c3ccc4c(c3)OCO4)nc3ccccc23)c1,inactive,–

# — PubChem BioAssay AID662 (National Center for Advancing Translational Sciences (NCATS), 2007)
